Data reported in article PMC11094793, “Discovery of LLC0424 as a Potent and Selective in Vivo NSD2 PROTAC Degrader” (Journal of Medicinal Chemistry, 2024).

System: VCaP cells
Experiment: TMT global proteomics in VCaP cells
Assay type: cell-based, human
Conditions: for Abundance Ratio (log2): (LLC0424) / (DMSO): VCaP
Protocol: We conducted a global proteomic assay using tandem mass tags (TMT) labeled mass-spectrometry to unbiasedly quantify the protein change upon LLC0424 treatment in VCaP and RPMI-8402 cells. […] We further used SEM cell line to cross-validate the selectivity of LLC0424 for NSD2 over NSD1 and NSD3 as well as CRBN neo-substrates IKZF1, IKZF3, GSPT1, and CK-1α using immunoblotting. […] When we increased the treatment time of LLC0424 in SEM cells, we observed mild decrease of GSPT1 from 12 h (SI, Figure S3F).
Figure 5 LLC0424 was a selective NSD2 degrader. (A) Unbiased global proteomics analysis of LLC0424 in VCaP cells after 6 h treatment of DMSO or 2 μM LLC0424. (B) Mass-spec quantification of NSD2 protein. (C) Heatmap for the level of PWWP-1 domain-containing proteins in VCaP cells treated with DMSO or 2 μM LLC0424. (D) Immunoblotting of NSD2, NSD1, NSD3, GSPT1, CK-1α, IKZF1, IKZF3, and H3 in SEM cells treated with 2 μM LLC0424 for various time points.
RPMI-8402 cells were plated at 10 × 10^6 cells per plate on 10 cm tissue culture plates overnight before treating with DMSO (control) or 2 μM LLC0424 with 3 replicates for each treatment. After 8 h, whole cell lysates were collected using RIPA buffer (ThermoFisher Scientific) and quantified using Pierce Bovine Serum Albumin Standard Pre-Diluted Set (ThermoFisher Scientific). Cell lysates were proteolyzed and labeled with TMT 6-plex Isobaric Label Reagent (ThermoFisher Scientific) according to the protocol from the manufacturer and subjected to 8 fractions of liquid chromatography–mass spectrometry (LC-MS)/MS analysis as described.[33] We plotted the results using graphpad prism. To gain protein changes with high confidence, we screened the results of (LC-MS)/MS analysis with the criteria of peptides number >4 and unique peptides number >1.

For O=C1CCC(N2C(=O)c3ccc(N4CCC(NC(=O)c5ccc(NC(=O)c6ccc(CN(C(=O)c7ccc8c(c7)OCC(=O)N8)C7CC7)cc6)cc5)CC4)cc3C2=O)C(=O)N1 (stereo not drawn) [compound 10l, N-Cyclopropyl-N-(4-((4-((1-(2-(2,6-dioxopiperidin-3-yl)-1,3-dioxoisoindolin-5-yl)piperidin-4-yl)carbamoyl)phenyl)carbamoyl)benzyl)-3-oxo-3,4-dihydro-2H-benzo[b][1,4]oxazine-7-carboxamide], the “proteins significantly decreased in global proteomics” value (VCaP cells, 2 μM, 6 h) was “only NSD2 significantly decreased”, the “Abundance Ratio (log2): (LLC0424) / (DMSO)” value (protein accession O75369) was -0.01 and the “Abundance Ratio (log2): (LLC0424) / (DMSO)” value (protein accession P78527) was 0.01. The “Abundance Ratio (log2): (LLC0424) / (DMSO)” value (protein accession Q13813) was 0.04, the “Abundance Ratio (log2): (LLC0424) / (DMSO)” value (protein accession Q15149) was -0.06 and the “selectivity for NSD2 over other PWWP domain-containing proteins” value (global proteomics, both cell lines (VCaP and RPMI-8402), 2 μM) was “selective for NSD2 over other PWWP domain-containing proteins”.
